According to the supplement of paper PMC10126150:
Values marked as one replicate rest on one cluster of the flow cell; about a third of the high ones do not repeat.

system: ATP; test: switch fluorescence ratio, 500 uM ATP over buffer (Cy3 cluster intensity, sum of 5 cycles each) (fold (ratio)); higher = stronger signal-on switching upon ATP binding; sequences stand for … in TCGTCGGCAGCGTCAGATGTGTATAAGAGACAGTTTTTTTTTTTTTTTTTTTTTTTTT…TC; conditions: aptamer strand: ATP DNA aptamer (quencher-CACCTGGGGGAGTATTGCGGAGGAAGG + anchor), 100 nM annealed; ATP concentration: 500 uM; one replicate
Outline: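 Switching-strand clusters labelled with Cy3 on a modified Illumina MiSeq flow-cell were annealed to 100 nM quencher-labelled ATP aptamer, imaged in selection buffer, and re-imaged after 15 min with 500 uM ATP at 22 °C. This was done over five cycles with NaOH stripping and re-annealing in between. The fluorescence ratio is summed target-cycle over summed buffer-cycle Cy3 intensity per cluster, averaged per switch-domain sequence, excluding clusters outside 100-1000 RFU.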
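Note: ATP exposure 15 min at 22 °C before imaging.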

| Sequence | switch fluorescence ratio |
| --- | --- |
| GTCAAGGGGG | 0.99 |
| GTCAATATTG | 1.01 |
| GTCAATGTTA | 0.973 |
| GTCAATTAGC | 0.942 |
| GTCACACGCG | 0.995 |
| GTCACCACCC | 1.1 |
| GTCACCCGCA | 1.36 |
| GTCACCCGGT | 1.2 |
| GTCACTCATC | 1.07 |
| GTCAGAACCA | 1.03 |
| GTCAGACTAC | 1.02 |
| GTCAGAGCAC | 1.09 |
| GTCAGATAAC | 0.992 |
| GTCAGCCGGT | 1.01 |
| GTCAGGGGTT | 2.94 |
| GTCAGTGGTA | 1.01 |
| GTCATAATGG | 0.983 |
| GTCATACCAA | 0.997 |
| GTCATACCAC | 1 |
| GTCATAGGAA | 0.999 |
| GTCATAGTCT | 1.06 |
| GTCATAGTTT | 1.02 |
| GTCATGGCCA | 1.01 |
| GTCATGGCTG | 0.944 |
| GTCATTAATA | 0.996 |

| Sequence | switch fluorescence ratio |
| --- | --- |
| GTCCAGATAA | 1.04 |
| GTCCATCAGC | 1.03 |
| GTCCATCGAC | 0.965 |
| GTCCCAAGGG | 1.08 |
| GTCCCAAGTT | 1.03 |
| GTCCCCGATC | 1.06 |
| GTCCCGGTTC | 0.998 |
| GTCCCTCAGG | 3.88 |
| GTCCCTCATA | 0.966 |
| GTCCGCGCTG | 1.06 |
| GTCCGCTCTT | 1.11 |
| GTCCGGGGTA | 1.11 |
| GTCCGGTGCC | 1.03 |
| GTCCGTGGGT | 1.01 |
| GTCCTCCCTT | 1.23 |
| GTCCTGCTAG | 0.988 |
| GTCCTTAGCC | 1 |
| GTCGACACTG | 1.02 |
| GTCGACAGGA | 1.03 |
| GTCGACATTG | 1.01 |
| GTCGACGGCA | 1 |
| GTCGAGAATA | 1.01 |
| GTCGAGTCGT | 1.03 |
| GTCGATGGTA | 0.968 |
| GTCGCCCTTA | 0.973 |

| Sequence | switch fluorescence ratio |
| --- | --- |
| GTCGCCGCAT | 1.02 |
| GTCGCTGTCG | 0.992 |
| GTCGCTTATA | 1.05 |
| GTCGGCCAGC | 1 |
| GTCGGCTGTT | 1 |
| GTCGGGCGTG | 1.03 |
| GTCGTAAGGG | 1.01 |
| GTCGTAGCTA | 1.06 |
| GTCGTGGAGG | 1.03 |
| GTCGTTGCAG | 1.01 |
| GTCGTTGCGC | 0.979 |
| GTCTACAATC | 1.08 |
| GTCTACACAT | 0.976 |
| GTCTACCAAT | 1.01 |
| GTCTACCAG | 1 |
| GTCTACTGGA | 1.04 |
| GTCTCAAGAA | 0.971 |
| GTCTCAATTA | 0.963 |
| GTCTCAGGGC | 1.01 |
| GTCTCGTG | 0.937 |
| GTCTCTAAAT | 0.998 |
| GTCTCTCCAA | 1.05 |
| GTCTGATCTC | 1.03 |
| GTCTGCGCAT | 1.67 |
| GTCTGCGGCG | 1.03 |

| Sequence | switch fluorescence ratio |
| --- | --- |
| GTCTGGGGTT | 0.983 |
| GTCTGGTTCC | 1.04 |
| GTCTTACGCG | 0.971 |
| GTCTTTTTAT | 0.985 |
| GTGAAACGCG | 0.972 |
| GTGAAATCCA | 1.01 |
| GTGAACCTTG | 1.03 |
| GTGAACGTG | 1.01 |
| GTGAAGGG | 1.06 |
| GTGAAGGTCT | 1.02 |
| GTGAATAGGC | 0.99 |
| GTGAATTTGG | 1.03 |
| GTGAATTTTT | 0.958 |
| GTGACACGTT | 1.01 |
| GTGACAGCAA | 1.44 |
| GTGACGGTTT | 1.01 |
| GTGACTGATA | 1.01 |
| GTGAGAAGGG | 1.01 |
| GTGAGACCGC | 1.09 |
| GTGAGAGTAT | 0.989 |
| GTGAGCAGAG | 1.06 |
| GTGAGCCGAG | 1.01 |
| GTGAGCGTCT | 1.03 |
| GTGAGGCATT | 1.13 |
| GTGAGTCCGT | 1.03 |

| Sequence | switch fluorescence ratio |
| --- | --- |
| GTGAGTGAA | 0.982 |
| GTGATAGTCA | 1.04 |
| GTGATATATG | 0.968 |
| GTGATCAATA | 0.981 |
| GTGATCTG | 1.02 |
| GTGATGAACT | 1.02 |
| GTGATGAGTG | 0.984 |
| GTGATGCGG | 1.02 |
| GTGATGTGTT | 0.997 |
| GTGATGTTAA | 0.985 |
| GTGATTAAAG | 0.988 |
| GTGATTAACC | 1.03 |
| GTGATTGTCT | 0.99 |
| GTGATTGTGG | 0.982 |
| GTGATTTGAT | 0.965 |
| GTGCAGTTGG | 0.993 |
| GTGCAGTTTT | 1.01 |
| GTGCATATAT | 1.11 |
| GTGCATTATT | 1.03 |
| GTGCCAATTT | 1.01 |
| GTGCCACAAG | 1.01 |
| GTGCCATGGC | 0.999 |
| GTGCCCCAAA | 1.07 |
| GTGCCCGGCG | 1.05 |
| GTGCCTATGG | 0.972 |

| Sequence | switch fluorescence ratio |
| --- | --- |
| GTGCCTGATC | 1.16 |
| GTGCCTTGTG | 0.99 |
| GTGCGAACGT | 0.993 |
| GTGCGGAAAA | 0.956 |
| GTGCGGAATG | 1.01 |
| GTGCGGAGCT | 1.03 |
| GTGCGGCGGA | 1.02 |
| GTGCTCAGGT | 1.06 |
| GTGCTCATTC | 1.04 |
| GTGCTCGTTT | 1.02 |
| GTGCTTAAGA | 1 |
| GTGGAAAATG | 0.963 |
| GTGGAAAG | 0.972 |
| GTGGAAAGTT | 0.998 |
| GTGGAACATG | 0.968 |
| GTGGAACCGT | 0.978 |
| GTGGAATGTG | 0.935 |
| GTGGACAGCA | 0.996 |
| GTGGAGCTGG | 0.986 |
| GTGGAGGCGA | 1 |
| GTGGATATCG | 0.959 |
| GTGGCAGCCT | 0.996 |
| GTGGCCGCCC | 1.14 |
| GTGGCTACAA | 1.02 |
| GTGGCTACCG | 0.963 |

| Sequence | switch fluorescence ratio |
| --- | --- |
| GTGGCTACGA | 0.983 |
| GTGGCTTGCG | 0.981 |
| GTGGGAAAGA | 1.02 |
| GTGGGAACAA | 1.05 |
| GTGGGAGATG | 0.996 |
| GTGGGATTCA | 1.01 |
| GTGGGCGCCA | 1.03 |
| GTGGGCGCTG | 0.975 |
| GTGGGGAATT | 1.01 |
| GTGGTATCG | 0.966 |
| GTGGTCCAAA | 0.971 |
| GTGGTCCATA | 0.998 |
| GTGGTCCGGT | 0.988 |
| GTGGTCGCCG | 1.03 |
| GTGGTGGGAA | 0.951 |
| GTGGTTTAGT | 0.997 |
| GTGTAACATA | 0.976 |
| GTGTAACGGA | 1.04 |
| GTGTACTAAT | 0.975 |
| GTGTACTTAT | 1.05 |
| GTGTAGCGGG | 0.992 |
| GTGTAGTTG | 0.998 |
| GTGTCAAATA | 0.939 |
| GTGTCAAGCC | 1.03 |
| GTGTCAAGTC | 1.03 |

| Sequence | switch fluorescence ratio |
| --- | --- |
| GTGTCATTCG | 0.962 |
| GTGTCGCGCA | 1 |
| GTGTGACATT | 0.978 |
| GTGTGACTAG | 1.04 |
| GTGTGATTGG | 0.936 |
| GTGTGCCTTG | 0.97 |
| GTGTGCTAGC | 0.96 |
| GTGTGGCTT | 0.957 |
| GTGTGTACTC | 1.01 |
| GTGTGTGACA | 0.99 |
| GTGTTACGTA | 1.05 |
| GTGTTATAA | 1.05 |
| GTGTTCCCAT | 0.97 |
| GTGTTGCATC | 1.02 |
| GTGTTGGTTA | 0.964 |
| GTGTTTAACA | 1.03 |
| GTGTTTATTG | 0.956 |
| GTGTTTCGGC | 0.96 |
| GTTAAACGAT | 0.982 |
| GTTAAACTGC | 0.912 |
| GTTAACTTTT | 0.954 |
| GTTAAGAT | 0.959 |
| GTTACAAAAA | 1.09 |
| GTTACAACTA | 1.06 |
| GTTACAGGG | 0.967 |
